Measured values taken from PubChem BioAssay AID686979 (National Center for Advancing Translational Sciences (NCATS), 2013).
“And” between values parts separate entries of the source, which are not always exact repeats. Equal entries are not always repeated. About 50,000 (12%) of roughly 420,000 compounds were called active. This list was built around the results that the source calls inconclusive (neither active nor inactive); the mix of calls is not that of the screen. Calls come from the whole dose curve; as a rule, active = well fitted inhibition curve with a large enough effect; inconclusive = small, poorly fitted or top-dose-only effect; inactive = flat fitted curve, though single readings scatter. Potencies beside an inconclusive call are fits to weak or partial responses and may not hold up.

Experiment: qHTS for Inhibitors of human tyrosyl-DNA phosphodiesterase 1 (TDP1): qHTS in cells in presence of CPT; note: nearly all actives have a fitted effect of over 55% in size
Details: chicken DT40 Tdp1-/-;hTDP1 cells + 20 nM CPT, ATP luminescence, 48 h; activity change, negative = growth inhibition: at 46.2 µM (top of the series) unless noted
Procedure, shortened: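 Chicken DT40 Tdp1-/- cells complemented with human TDP1, 400 cells/well, exposed to compounds plus 20 nM camptothecin for at least 48 h at 37 C; viability read as ATP content by CellTiter-Glo luminescence.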
% is set by controls: 0 for no effect and ±100 for the full control effect; potency is the fitted concentration of half-maximal effect; tags give direction and shape of the fitted curve.

Row | Compound | Potency | activity change, negative = growth inhibition
1 | C/C(=N\NC(=O)CC1N=C(Cc2ccccc2)NNC1=O)c1ccc(C)cc1 (stereo not drawn) | inconclusive: 16.4 µM [inhibitor, single point] | 
2 | CC(CCc1ccccc1)NC(=O)COC(=O)c1ccc(NC(N)=O)cc1 (stereo not drawn) | inactive | 
3 | Cc1ccc(SCc2cc(=O)[nH]c(/N=C(\N)Nc3ccccc3Sc3ccccc3)n2)cc1 | inconclusive: 29.1 µM [inhibitor, single point] | 
4 | COc1cc(NC(=O)CN2C(=O)COc3ccc(S(=O)(=O)N4CCCCC4)cc32)cc(OC)c1 | inconclusive: 25.9 µM [inhibitor, single point] | 
5 | Cc1cc2oc(=O)cc(-c3ccccc3)c2c(C)c1-c1ccc(OC(F)(F)F)cc1 | inconclusive: 16.4 µM [inhibitor, single point] | 
6 | COC(=O)c1ccccc1NC(=S)N(Cc1ccc2c(c1)OCO2)Cc1cc2cc(C)ccc2[nH]c1=O | active: 20.6 µM | 
7 | Cc1ccc(C)c(CN2C(=O)c3ccccc3S(=O)(=O)c3ccc(C(=O)N4CCN(c5ccccn5)CC4)cc32)c1 | inconclusive: 23.1 µM [inhibitor, single point] | 
8 | c1ccc(CSc2nnc(-c3ccccc3)c(-c3ccccc3)n2)cc1 | inconclusive: 29.1 µM [inhibitor, single point] | 
9 | CC(C)NC(=O)c1ccccc1NS(=O)(=O)c1ccc(Br)s1 | inconclusive: 29.1 µM [inhibitor, single point] | 
10 | COC(=O)c1ccccc1CCC(C)=O | inconclusive: 29.1 µM [inhibitor, single point] | 
11 | CC(=O)N1CCc2cc(S(=O)(=O)NCCC(=O)NCCc3ccc(Cl)cc3)ccc21 | active: 16.4 µM | 
12 | CCc1c(C)[nH]c2ccccc2c1=O | inconclusive: 9.2 µM [inhibitor, partial curve, poor fit] | 
13 | COc1ccc(Br)cc1S(=O)(=O)N1CCCC1 | active: 9.2 µM | 
14 | Clc1ccc(CNc2ncnc3nc[nH]c23)cc1 | inconclusive: 22.4 µM [inhibitor, single point] and inconclusive: 35.5 µM [inhibitor, single point] | 
15 | COc1ccc(-c2cc(C#N)nc(N3CCN(C)CC3)n2)cc1 | inactive | 
16 | CCOc1ccc(NCc2cccn2-c2nnc(N3CCC(C(=O)NCCCN4CCCCC4)CC3)s2)cc1 | inconclusive: 29.1 µM [inhibitor, single point] | 
17 | O=C1N=c2ccccc2=C1c1sc(=S)n(Cc2ccccc2Cl)c1O | inconclusive: 29.1 µM [inhibitor, single point] | 
18 | Cc1c(C(=O)NCc2cccs2)sc(=O)n1Cc1ccc(S(=O)(=O)N(C)C)cc1 | inconclusive: 25.9 µM [inhibitor, single point] | 
19 | COc1cc(/C=C/C(=O)NC(C)CCc2ccccc2)cc(OC)c1OC (stereo not drawn) | inconclusive: 18.4 µM [inhibitor, single point] | 
20 | Cc1c(C=O)c2ccccc2n1CCOc1ccccc1F | active: 23.1 µM | 
21 | CCCCNC(=O)CC1N=C2c3ccccc3N=C(SCC(=O)Nc3cccc(OC)c3)N2C1=O (stereo not drawn) | inactive | 
22 | CCOC(=O)C1(C)/C(=N/Nc2ccccc2Cl)C(=O)C(=O)N1c1ccccc1 (stereo not drawn) | inactive | 
23 | COc1cccc(NC(=O)CSc2nc3ccccc3n2C)c1 | inconclusive: 29.1 µM [inhibitor, single point] | 

Row | Compound | Potency | activity change, negative = growth inhibition
24 | CN(C)CCCNC(=O)CC1C[C@H](C(=O)N2CCCCC2)[C@@]2(CCc3ccccc3)c3[nH]c4ccccc4c3CCN2C1=O (stereo partly drawn) | active: 20.6 µM | 
25 | CCC(=O)N1CCc2cc(S(=O)(=O)CCC(=O)N3CCN(c4cc(C)ccc4C)CC3)ccc21 | inconclusive: 29.1 µM [inhibitor, partial curve] | 
26 | Nc1nc(N)nc(-c2ccccc2-c2nc(N)nc(N)n2)n1 | inactive | 
27 | COc1ccc(OC)c(NC(=O)CN(C)S(=O)(=O)c2ccc3[nH]c4c(c3c2)CCCC4)c1 | active: 18.4 µM | 
28 | COc1ccc(CN2CN(c3ccc(Cl)cc3)C(=O)N(n3cnnc3)C2)cc1 | inconclusive: 23.1 µM [inhibitor, partial curve] | 
29 | Cc1cccc(C2c3[nH]c4ccccc4c3CCN2C(=O)Cc2n[nH]c(C)n2)n1 (stereo not drawn) | inactive | 
30 | Cc1ccc(Cn2nnc3c(=O)[nH]c(C4CCN(S(=O)(=O)c5ccc(S(=O)(=O)NC6CC6)cc5)CC4)nc32)cc1 | inconclusive: 29.1 µM [inhibitor, single point] | 
31 | Cc1ccc(/C=N/NC(=O)c2cccc3ccccc23)o1 | active: 13 µM | 
32 | CCCCNc1c(CCc2ccccc2)nc2nc(C)cc(C)n12 | active: 18.4 µM | 
33 | CCOc1ccc(NC(=O)c2c(NC(=O)Cc3ccccc3)sc3c2CCC(C)C3)cc1 (stereo not drawn) | active: 16.4 µM | 
34 | C#CC(=O)N(c1ccc(OC)c(OC)c1)C(C(=O)NC1CCCC1)c1cccs1 (stereo not drawn) | active: 0.731 µM | 
35 | COc1cc2cnc(-c3ccccc3)c(-c3ccc(C#N)cc3)c2cc1OC | inconclusive: 29.1 µM [inhibitor, single point] | 
36 | Cc1ccc(NC(=O)Cn2c(=O)n(Cc3ccco3)c(=O)c3ccc(C(=O)NC4CCCC4)cc32)c(C)c1 | active: 16.4 µM | 
37 | C=CCN1C(=O)/C(=C2/Sc3ccccc3N2C)SC1=Nc1ccccc1C | inconclusive: 20.6 µM [inhibitor, partial curve] | 
38 | CCCC(=NCc1ccccc1)C1=C(O)C(C(=O)OC)C(C)(C)CC1=O (stereo not drawn) | inconclusive: 20.6 µM [inhibitor, single point] | 
39 | CCOC(=O)c1cnn(-c2ccccc2)c1NC(=O)CSc1nnc(-c2cccs2)n1CC | inconclusive: 25.9 µM [inhibitor, single point] | 
40 | CC1(C)CC(C(CCN(Cc2ccccc2)C(=O)c2ccco2)c2ccc(F)cc2)CCO1 (stereo not drawn) | inconclusive: 29.1 µM [inhibitor, single point] | 
41 | Cc1ccc(-c2cc(C(=O)N3CCN(C(=O)c4ccco4)CC3)[nH]n2)cc1C | inconclusive: 29.1 µM [inhibitor, single point] | 
42 | CCN(CC)c1ccc2cc(NC(=O)CCC(=O)O)c(=O)oc2c1 | inactive | 
43 | O=C(CSc1nc2ccc(S(=O)(=O)N3CCOCC3)cc2[nH]1)N1CCOCC1 | inconclusive: 35.5 µM [inhibitor, single point] | 
44 | CCOc1ccc(C(=O)NCC(c2ccc3c(c2)OCO3)N2CCN(c3ccccc3F)CC2)cc1 (stereo not drawn) | active: 16.4 µM | 
45 | COc1ccc(OCc2cc(C(=O)N3CCCN(C(C)=O)CC3)no2)c(Cl)c1 | inconclusive: 25.9 µM [inhibitor, single point] | 
46 | Cc1c(C(=O)Nc2ccc(S(=O)(=O)Nc3ncccn3)cc2)oc2ccc(F)cc12 | inactive | 

Row | Compound | Potency | activity change, negative = growth inhibition
47 | O=C(CSc1nc2ccccc2[nH]1)c1c[nH]c2ccccc12 |  | inconclusive: -32.4% [inhibitor]
48 | CCOc1ccc(NC(=O)c2c(NCc3ccc(C)o3)sc3c2CCC(C)C3)cc1 (stereo not drawn) | inconclusive: 20.6 µM [inhibitor, single point] | 
49 | Cc1nnc(NC(=O)Cc2ccc(OCc3c(C)noc3C)cc2)s1 |  | inconclusive: -35.1% [inhibitor]
50 | CCn1c(=O)cc(SCC(=O)NCCc2cc(OC)ccc2OC)c2ccccc21 | active: 20.6 µM | 
51 | Cc1ccc2[nH]c(=O)c(CN(CCO)C(=O)NCc3ccccc3)cc2c1 | inactive | 
52 | CCCCCCc1ccc(N2C[C@H](Cc3ccccc3)[C@@H](CC(=O)Nc3ccccc3)C2=O)cc1 | inconclusive: 35.5 µM [inhibitor, single point] and inconclusive: 23.1 µM [inhibitor, single point] | 
53 | O=C(Nc1ccccc1N1CCCC1)c1cccc(S(=O)(=O)N2CCOCC2)c1 | inconclusive: 18.4 µM [inhibitor, single point] | 
54 | O=C(CN1C(=O)COc2ccc(Cl)cc21)Nc1ccc(F)cc1 | inconclusive: 23.1 µM [inhibitor, single point] | 
55 | CC(=O)N(Cc1c(C)nn(-c2ccccc2)c1Cl)c1ccc(Cl)cc1 | inconclusive: 29.1 µM [inhibitor, single point] | 
56 | CC(NS(=O)(=O)c1ccccc1)c1n[nH]c(=S)n1-c1ccccc1 (stereo not drawn) | inactive | 
57 | CCCC(C(=O)NCC1CCCO1)N(C(=O)CNS(=O)(=O)c1ccccc1)c1ccc(F)cc1 (stereo not drawn) | inactive | 
58 | CCN(C(=O)c1nn(-c2ccc(OC)c(Cl)c2)c(=O)c2c1c1ccccc1n2C)c1cccc(C(F)(F)F)c1 | inconclusive: 29.1 µM [inhibitor, single point] | 
59 | CCCOc1cccc(C(=O)Nc2cccc3cccnc23)c1 | active: 23.1 µM | 
60 | Cc1cc(C(F)F)n2nc(C(=O)Nc3cc(C)on3)nc2n1 | inconclusive: 2.59 µM [inhibitor, partial curve, poor fit] | 
61 | COc1cc(NC(=O)CCn2c(=O)[nH]c3ccsc3c2=O)cc(OC)c1 | inconclusive: 23.1 µM [inhibitor, single point] | 
62 | CC1(C(=O)Nc2cccnc2)Cc2c(-c3cccc(C(F)(F)F)c3)ccnc2O1 (stereo not drawn) | active: 16.4 µM | 
63 | CCC(C)(C)n1nnnc1CN1CCN(c2nc3ccc(C)cc3cc2C#N)CC1 | inconclusive: 18.4 µM [inhibitor, partial curve] | 
64 | O=C(/C=C/c1ccccc1[N+](=O)[O-])c1ccccc1Br | active: 20.6 µM | 
65 | Cc1occc1C(=O)NNC(=O)Nc1ccc(Cl)c(Cl)c1 | active: 14.6 µM | 
66 | CC(C)(c1ccccc1)c1ccc(OCCn2cnc3ccccc3c2=O)cc1 | inconclusive: 25.9 µM [inhibitor, single point] | 
67 | O=CN/C=C/c1cc(O)ccc1O | active: 4.11 µM | 
68 | Cc1nn(-c2ccccc2)c(-c2ccccc2[N+](=O)[O-])c1C(=O)O | inactive | 
